# Measured values: PubChem BioAssay AID1347073 (National Center for Advancing Translational Sciences (NCATS), 2019)
# Screen size: about 45,000 compounds; about 200 (0.44%) were called active. Another 7% or so got no clear call; they are omitted. The call rests on the fitted dose curve; in most records, active means well fitted activation curve with a large enough effect; inconclusive means small, poorly fitted or top-dose-only effect; inactive means no such curve, though single readings can be large or run the other way. The list shows a part of the results.
# Assay: qHTS of TDP-43 Inhibitors: NCGC Sytravon Library Screen; further: 0% is about no effect; nearly all actives have a fitted effect of over 55% in size
# Details: yeast TDP-43 toxicity rescue, BacTiter-Glo growth, 24 h; series mostly up to 46.1 µM; growth rescue (activation): at the top concentration
# How it was run: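 TDP-43-expressing yeast, pregrown in raffinose, seeded at OD600 0.02 in galactose medium with compound for 24 hr at 30 deg C. Growth read by BacTiter-Glo luminescence, so rescue of toxicity appears as activation.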
row,Structure (SMILES),growth rescue (activation)
1,C=CCOc1ccc(/C=C2\SC(=S)N(NS(=O)(=O)c3ccc(C)cc3)C2=O)cc1,inactive: 7.88%
2,O=C(c1ccc2c(c1)N(Cc1ccccc1)C(=O)c1ccccc1S2(=O)=O)N1CCC(Cc2ccccc2)CC1,inactive: 3.65%
3,CC1CCCC(C)N1C(=O)COC(=O)CCc1nc2ccccc2c(=O)[nH]1 (stereo unspecified),inactive: 25.1%
4,O=C(Nc1ccnn1C1CCN(C(=O)c2ccc(F)cc2)CC1)C1CCOC1 (stereo unspecified),inactive: 7.61%
5,Cc1ccc(NC(=O)C/C(N)=N/OC(=O)Nc2ccc(C)c(Cl)c2)cc1,inactive: 11%
6,CNc1nnc(-c2ccc(C)cc2)c2ccccc12,inactive: -14.9%
7,COc1cccc(C(=O)N(C)CC(=O)Nc2ccc(F)c(F)c2F)c1,inactive: -6.88%
8,CC1CN(C(=O)[C@@H]2CCCN2S(=O)(=O)c2ccc(Cl)cc2)CC(C)O1 (stereo partly specified),inactive: 17.8%
9,CCCCC(=O)NCc1ccc(Cl)cc1,inactive: 5.47%
10,CCC(C)[C@H](NC(=O)N1CCC(C)CC1)C(=O)O (stereo partly specified),inactive: 24.2%
11,O=C(NCCc1ccccn1)C1CCCN1S(=O)(=O)c1ccc(Cl)cc1 (stereo unspecified),inactive: -1.75%
12,CCNC(=O)NC(=O)COC(=O)c1cccc(NS(=O)(=O)/C=C/c2ccccc2)c1,inactive: 2.27%
13,O=C(Nc1ccccn1)c1ccc(Cl)c([N+](=O)[O-])c1,inactive: 9.3%
14,CCN(CC)S(=O)(=O)c1ccc(NC(=O)c2ccc(N3CCCC3=O)cc2)cc1,inactive: 16.9%
15,CN(C)C(CNC(=O)CCC(=O)c1ccc(Br)cc1)c1ccccc1 (stereo unspecified),inactive: -0.188%
16,Cc1ccc(NC(=S)N(Cc2cccs2)Cc2cc3cc(C)cc(C)c3[nH]c2=O)cc1,inactive: 13%
17,Cc1ccc(NC(=O)CCC(=O)NNC(=O)c2ccccc2)c(C)c1,inactive: 2.88%
18,Cc1ccc(CNC(=O)Nc2cccs2)cc1,inactive: 11.9%
19,Cn1cc(CNCC2CCCO2)c(-c2ccc(Oc3ccccc3)cc2)n1 (stereo unspecified),inactive: 10.6%
20,Cc1ccnc(NCc2ccccc2O)c1,inactive: 2.83%
21,CN1c2ccccc2C(=O)NC1c1ccc(Cl)cc1 (stereo unspecified),inactive: 14.8%
22,CCN1CCc2nc3sc(C(=O)N4CCc5ccccc5C4)c(N)c3cc2C1,inactive: 22.4%
23,O=C1N/C(=C/c2ccc(Br)cc2)C(O)=C1C=NCc1ccccc1,inactive: 8.5%
24,O=S(=O)(CCOc1ccccc1)N1CCOCC1,inactive: 9.15%

row,Structure (SMILES),growth rescue (activation)
1,CC(=O)NCCNc1ccc([N+](=O)[O-])cc1C#N,inactive: 16.6%
2,NS(=O)(=O)c1ccc(CNC(=O)c2ccc(NS(=O)(=O)c3cccs3)cc2)cc1,inactive: 24.3%
3,COc1ccccc1CC(=O)Nc1ccc([N+](=O)[O-])cc1O,inactive: -23%
4,CCOc1ccc2nc(SCC(=O)Nc3cc(C)on3)c(C)cc2c1,inactive: 6.18%
5,Cc1cc(NC(=O)CS(=O)(=O)Cc2ccccc2)no1,inactive: -4.67%
6,O=C(c1cc(S(=O)(=O)N2CCCCC2)c(Cl)cc1N1CCOCC1)N1CCOCC1,inactive: -0.141%
7,CN(C)CCNC(=O)c1ccc2c(c1)N(Cc1ccccc1)C(=O)c1ccccc1S2(=O)=O,inactive: 10.1%
8,CCN(CC)S(=O)(=O)c1ccc(C(=O)N2CCc3ccccc32)cc1,inactive: 5.51%
9,CN1C(=O)N(C)C2(c3ccccc3)NNC(N)=NC12c1ccccc1 (stereo unspecified),inactive: -2.68%
10,Cc1cc(C)n2ncc(C(=O)Nc3cccc(O)c3)c2n1,inactive: -4.92%
11,COc1ccc(C(C(=O)NCC2CCCO2)N(C(=O)CNC(=O)c2cccs2)c2ccccc2C)cc1OC (stereo unspecified),inactive: 4.9%
12,O=C1/C(=C/c2ccc(O)cc2)SC(=S)N1CC1CCCO1 (stereo unspecified),inactive: 3.77%
13,O=C(O)c1cccc(Nc2ncnc3ccc(Br)cc23)c1,inactive: 17.5%
14,CCOC(=O)c1ccc(S(=O)(=O)NCCN(CC)CC)cc1,inactive: 3.64%
15,COC(=O)c1cc(NC(=O)CN(C)Cc2ccccc2)cc(C(=O)OC)c1,inactive: 3.78%
16,CCNC(=O)COc1ccc(CC)cc1,inactive: 2.15%
17,O=C(CN1CCN(C(c2ccccc2)c2ccccc2)CC1)NCc1ccccc1,inactive: 11.9%
18,O=C(Nc1ccc(NC(=O)c2ccc(Cl)cc2Cl)cc1)c1ccc2c(c1)OCO2,inactive: -6.41%
19,COc1ccc(Cc2nc3ccc(S(N)(=O)=O)cc3[nH]2)cc1OC,inactive: -1.64%
20,COc1ccc(N2CC(C(=O)NCc3ccco3)CC2=O)cc1 (stereo unspecified),inactive: -6.36%
21,CC1CCN(c2cc(N3CCN(C(=O)c4ccc(F)c(F)c4)CC3)c([N+](=O)[O-])cc2F)CC1,inactive: 21%
22,O=C(COC(=O)c1cc(=O)c2ccccc2o1)NC1CCCC1,inactive: 9.11%
23,COC(=O)CCCN=C1SCCN1Cc1ccccc1,inactive: 9.09%
24,CC1(C(=O)NCc2ccc(C(F)(F)F)cc2)CCN1Cc1c(F)cccc1F (stereo unspecified),inactive: 2.6%

row,Structure (SMILES),growth rescue (activation)
1,O=C(CSc1c2c(nc3cc(Cl)ccc13)CCCC2)NCCN1CCOCC1,inactive: -6.47%
2,COc1cc(NC(=S)NCCCN2CCOCC2)c(OC)cc1NC(=O)c1ccco1,inactive: -8.21%
3,CCc1cccc(NC(=O)c2cccc(S(=O)(=O)N3CCN(C)CC3)c2)c1,inactive: 1.97%
4,Cc1cc(NC(=O)Cn2cnc3sccc3c2=O)no1,inactive: -2.57%
5,CCCCCCOC(=O)Cc1c(C)nc(N)[nH]c1=O,inactive: 17.2%
6,O=C(COC(=O)C1CC1)Nc1ccc(S(=O)(=O)N2CCOCC2)cc1,inactive: 2.92%
7,COc1cc(CCC(=O)OCC(=O)Nc2ccc(C)cc2Cl)cc(OC)c1OC,inactive: 9.14%
8,NC(=O)NOCc1ccc(F)cc1Cl,inactive: 5.67%
9,CC(C)(C)c1nc(SCC(=O)NC2CCCC2)c2ccccc2n1,inactive: -7.9%
10,Cc1ccccc1NC(=O)Cc1nnc(SCC(=O)NC2CCCC2)n1C,inactive: 8.18%
11,COCC(C)n1c(SCc2cc(C(=O)OC)c(C)o2)nc2ccccc2c1=O (stereo unspecified),inactive: -6.67%
12,COc1ccc(C(N)c2csc(Nc3ccc(C(F)(F)F)cn3)n2)cc1 (stereo unspecified),inactive: 2.69%
13,O=C(NCCN1CCOCC1)c1ccc(=O)n(Cc2ccc(Cl)cc2)c1,inactive: -0.344%
14,CC(Oc1ccccc1Cl)C(=O)Nc1ccc(S(=O)(=O)N2CCOCC2)cc1 (stereo unspecified),inactive: -4.64%
15,Cc1ccc([N+](=O)[O-])cc1Nc1nc(N2CCOCC2)nc(N2CCOCC2)n1,inactive: 4.72%
16,CC(NC(=O)c1ccccc1)C(=O)N/N=C/c1cccc([N+](=O)[O-])c1 (stereo unspecified),inactive: 3.43%
17,COc1cc(NC(=O)C/C(C)=N/NC(=O)C2CCCCC2)c(OC)cc1Cl,inactive: 16.4%
18,COc1cc(CN2CCN(Cc3ccc(SC)cc3)CC2)cc(OC)c1O,inactive: -6.87%
19,O=c1[nH]ncc(NCc2ccc(Cl)cc2)c1Cl,inactive: 0.749%
20,COC(=O)c1ccccc1N=Nc1c(N)[nH][nH]c1=O,inactive: -20%
21,O=C(Cc1ccc(O)cc1)NC1CCCCCC1,inactive: -12.9%
22,Nc1ccc(C(=O)OCc2nc3ccccc3s2)cc1,inactive: 15.7%
23,Cc1csc(=Nc2ccccc2)n1C,inactive: -1.01%
